{"source": "paper PMC9911399", "about": "“Two distinct binding modes provide the RNA-binding protein RbFox with extraordinary sequence specificity”", "binders": {"B1": {"name": "GGGAGAG (DNA:RNA)", "RNA": "GGGAGACCGGAAUUCAGAUUGUCCGGGAGAGUUAAAUCCCGUCGUAGCCACCA", "DNA 1": "CAATCTGAATTCCGGTCTCCC", "DNA 2": "TGGTGGCTACGACGGGATT"}, "B2": {"name": "UCGAUAU (DNA:RNA)", "RNA": "B1 RNA with G25U, G26C, G29U, G31U", "DNA 1": "CAATCTGAATTCCGGTCTCCC", "DNA 2": "TGGTGGCTACGACGGGATT"}, "B3": {"name": "ACUAUCG (DNA:RNA)", "RNA": "B1 RNA with G25A, G26C, G27U, G29U, A30C", "DNA 1": "CAATCTGAATTCCGGTCTCCC", "DNA 2": "TGGTGGCTACGACGGGATT"}, "B4": {"name": "GUUCCCA (DNA:RNA)", "RNA": "B1 RNA with G26U, G27U, A28C, G29C, A30C, G31A", "DNA 1": "CAATCTGAATTCCGGTCTCCC", "DNA 2": "TGGTGGCTACGACGGGATT"}, "B5": {"name": "GAGCAUG (DNA:RNA)", "RNA": "B1 RNA with G26A, A28C, G29A, A30U", "DNA 1": "CAATCTGAATTCCGGTCTCCC", "DNA 2": "TGGTGGCTACGACGGGATT"}, "B6": {"name": "UCCAAAC (DNA:RNA)", "RNA": "B1 RNA with G25U, G26C, G27C, G29A, G31C", "DNA 1": "CAATCTGAATTCCGGTCTCCC", "DNA 2": "TGGTGGCTACGACGGGATT"}, "B7": {"name": "UUCGGCA (DNA:RNA)", "RNA": "B1 RNA with G25U, G26U, G27C, A28G, A30C, G31A", "DNA 1": "CAATCTGAATTCCGGTCTCCC", "DNA 2": "TGGTGGCTACGACGGGATT"}, "B8": {"name": "GCAACGA (DNA:RNA)", "RNA": "B1 RNA with G26C, G27A, G29C, A30G, G31A", "DNA 1": "CAATCTGAATTCCGGTCTCCC", "DNA 2": "TGGTGGCTACGACGGGATT"}, "B9": {"name": "CAUGGAU (DNA:RNA)", "RNA": "B1 RNA with G25C, G26A, G27U, A28G, G31U", "DNA 1": "CAATCTGAATTCCGGTCTCCC", "DNA 2": "TGGTGGCTACGACGGGATT"}, "B10": {"name": "CCGCUCA (DNA:RNA)", "RNA": "B1 RNA with G25C, G26C, A28C, G29U, A30C, G31A", "DNA 1": "CAATCTGAATTCCGGTCTCCC", "DNA 2": "TGGTGGCTACGACGGGATT"}, "B11": {"name": "CGCGACU (DNA:RNA)", "RNA": "B1 RNA with G25C, G27C, A28G, G29A, A30C, G31U", "DNA 1": "CAATCTGAATTCCGGTCTCCC", "DNA 2": "TGGTGGCTACGACGGGATT"}, "B12": {"name": "UCAACCC (DNA:RNA)", "RNA": "B1 RNA with G25U, G26C, G27A, G29C, A30C, G31C", "DNA 1": "CAATCTGAATTCCGGTCTCCC", "DNA 2": "TGGTGGCTACGACGGGATT"}, "B13": {"name": "CUUCGCA (DNA:RNA)", "RNA": "B1 RNA with G25C, G26U, G27U, A28C, A30C, G31A", "DNA 1": "CAATCTGAATTCCGGTCTCCC", "DNA 2": "TGGTGGCTACGACGGGATT"}, "B14": {"name": "GCGAAGC (DNA:RNA)", "RNA": "B1 RNA with G26C, G29A, A30G, G31C", "DNA 1": "CAATCTGAATTCCGGTCTCCC", "DNA 2": "TGGTGGCTACGACGGGATT"}, "B15": {"name": "CAGGUCU (DNA:RNA)", "RNA": "B1 RNA with G25C, G26A, A28G, G29U, A30C, G31U", "DNA 1": "CAATCTGAATTCCGGTCTCCC", "DNA 2": "TGGTGGCTACGACGGGATT"}, "B16": {"name": "GUACGGA (DNA:RNA)", "RNA": "B1 RNA with G26U, G27A, A28C, A30G, G31A", "DNA 1": "CAATCTGAATTCCGGTCTCCC", "DNA 2": "TGGTGGCTACGACGGGATT"}, "B17": {"name": "AAGUCUU (DNA:RNA)", "RNA": "B1 RNA with G25A, G26A, A28U, G29C, A30U, G31U", "DNA 1": "CAATCTGAATTCCGGTCTCCC", "DNA 2": "TGGTGGCTACGACGGGATT"}, "B18": {"name": "GACGUCA (DNA:RNA)", "RNA": "B1 RNA with G26A, G27C, A28G, G29U, A30C, G31A", "DNA 1": "CAATCTGAATTCCGGTCTCCC", "DNA 2": "TGGTGGCTACGACGGGATT"}, "B19": {"name": "GUAUGAA (DNA:RNA)", "RNA": "B1 RNA with G26U, G27A, A28U, G31A", "DNA 1": "CAATCTGAATTCCGGTCTCCC", "DNA 2": "TGGTGGCTACGACGGGATT"}, "B20": {"name": "CAAGGUA (DNA:RNA)", "RNA": "B1 RNA with G25C, G26A, G27A, A28G, A30U, G31A", "DNA 1": "CAATCTGAATTCCGGTCTCCC", "DNA 2": "TGGTGGCTACGACGGGATT"}, "B21": {"name": "CAUUACU (DNA:RNA)", "RNA": "GGGAGACCGGAAUUCAGAUUGUCCCAUUACUUUAAAUCCCGUCGUAGCCACCA", "DNA 1": "CAATCTGAATTCCGGTCTCCC", "DNA 2": "TGGTGGCTACGACGGGATT"}, "B22": {"name": "GGUCUGU (DNA:RNA)", "RNA": "B21 RNA with C25G, A26G, U28C, A29U, C30G", "DNA 1": "CAATCTGAATTCCGGTCTCCC", "DNA 2": "TGGTGGCTACGACGGGATT"}, "B23": {"name": "GGCGCGU (DNA:RNA)", "RNA": "B1 RNA with G27C, A28G, G29C, A30G, G31U", "DNA 1": "CAATCTGAATTCCGGTCTCCC", "DNA 2": "TGGTGGCTACGACGGGATT"}, "B24": {"name": "CGGGAUU (DNA:RNA)", "RNA": "B21 RNA with A26G, U27G, U28G, C30U", "DNA 1": "CAATCTGAATTCCGGTCTCCC", "DNA 2": "TGGTGGCTACGACGGGATT"}, "B25": {"name": "AGAUGUU (DNA:RNA)", "RNA": "B21 RNA with C25A, A26G, U27A, A29G, C30U", "DNA 1": "CAATCTGAATTCCGGTCTCCC", "DNA 2": "TGGTGGCTACGACGGGATT"}, "B26": {"name": "GCCACUG (DNA:RNA)", "RNA": "B1 RNA with G26C, G27C, G29C, A30U", "DNA 1": "CAATCTGAATTCCGGTCTCCC", "DNA 2": "TGGTGGCTACGACGGGATT"}, "B27": {"name": "CUGUUAC (DNA:RNA)", "RNA": "B21 RNA with A26U, U27G, A29U, C30A, U31C", "DNA 1": "CAATCTGAATTCCGGTCTCCC", "DNA 2": "TGGTGGCTACGACGGGATT"}, "B28": {"name": "ACAAAUA (DNA:RNA)", "RNA": "B21 RNA with C25A, A26C, U27A, U28A, C30U, U31A", "DNA 1": "CAATCTGAATTCCGGTCTCCC", "DNA 2": "TGGTGGCTACGACGGGATT"}, "B29": {"name": "AGCCGUC (DNA:RNA)", "RNA": "B1 RNA with G25A, G27C, A28C, A30U, G31C", "DNA 1": "CAATCTGAATTCCGGTCTCCC", "DNA 2": "TGGTGGCTACGACGGGATT"}, "B30": {"name": "GUAGAAG (DNA:RNA)", "RNA": "B1 RNA with G26U, G27A, A28G, G29A", "DNA 1": "CAATCTGAATTCCGGTCTCCC", "DNA 2": "TGGTGGCTACGACGGGATT"}, "B31": {"name": "CUUAGUU (DNA:RNA)", "RNA": "B21 RNA with A26U, U28A, A29G, C30U", "DNA 1": "CAATCTGAATTCCGGTCTCCC", "DNA 2": "TGGTGGCTACGACGGGATT"}}, "note": "Numbering of substitutions follows the chain as printed; changes in the protein carry UniProt numbers. The list shows a part of the results.", "data": [{"target": "T1, RBFOX1 RRM RbFoxmut (Fox-RRM*) (Homo sapiens, UniProt Q9NWB1 109-208, R118D;E147R;N151S;E152T)", "T1 sequence": "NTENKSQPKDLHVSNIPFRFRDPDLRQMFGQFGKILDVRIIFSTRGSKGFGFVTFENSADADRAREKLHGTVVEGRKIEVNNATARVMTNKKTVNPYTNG", "test": "EMSA; HiTS-Eq, 1 nM pool, 10 min; buffer printed only for the single-RNA assays: 10 mM Tris pH 7.5, 150 mM NaCl, 3.4 mM EDTA, 0.001% NP-40, 30 C", "settings": "tags: His6 N-terminal (pET28a); label: 5' 32P", "summary_of_the_method": "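These values rest on relative association constants, computed from read-count changes of each RNA species versus the control reaction and normalised to the cognate motif. Reads came from free RNA recovered by 8% native PAGE after purified RbFox RRM (wild type or mutant) at increasing concentrations was equilibrated for 10 min in 50 µL with 1 nM of a 5′-radiolabelled pool with 7 randomized nucleotides and DNA-annealed flanks.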", "values": [{"binder": "B1", "binding signal": "0.115 KA relative to UGCAUGU"}, {"binder": "B2", "binding signal": "0.114 KA relative to UGCAUGU"}, {"binder": "B3", "binding signal": "0.107 KA relative to UGCAUGU"}, {"binder": "B4", "binding signal": "0.0799 KA relative to UGCAUGU"}, {"binder": "B5", "binding signal": "1.12 KA relative to UGCAUGU"}, {"binder": "B6", "binding signal": "0.0811 KA relative to UGCAUGU"}, {"binder": "B7", "binding signal": "0.0951 KA relative to UGCAUGU"}, {"binder": "B8", "binding signal": "0.0556 KA relative to UGCAUGU"}, {"binder": "B9", "binding signal": "0.0754 KA relative to UGCAUGU"}, {"binder": "B10", "binding signal": "0.047 KA relative to UGCAUGU"}, {"binder": "B11", "binding signal": "0.062 KA relative to UGCAUGU"}, {"binder": "B12", "binding signal": "0.0527 KA relative to UGCAUGU"}, {"binder": "B13", "binding signal": "0.159 KA relative to UGCAUGU"}, {"binder": "B14", "binding signal": "0.0658 KA relative to UGCAUGU"}, {"binder": "B15", "binding signal": "0.0783 KA relative to UGCAUGU"}, {"binder": "B16", "binding signal": "0.0707 KA relative to UGCAUGU"}, {"binder": "B17", "binding signal": "0.058 KA relative to UGCAUGU"}, {"binder": "B18", "binding signal": "0.0995 KA relative to UGCAUGU"}, {"binder": "B19", "binding signal": "0.349 KA relative to UGCAUGU"}, {"binder": "B20", "binding signal": "0.124 KA relative to UGCAUGU"}, {"binder": "B21", "binding signal": "0.139 KA relative to UGCAUGU"}, {"binder": "B22", "binding signal": "0.215 KA relative to UGCAUGU"}, {"binder": "B23", "binding signal": "0.12 KA relative to UGCAUGU"}, {"binder": "B24", "binding signal": "0.0693 KA relative to UGCAUGU"}, {"binder": "B25", "binding signal": "0.155 KA relative to UGCAUGU"}, {"binder": "B26", "binding signal": "0.101 KA relative to UGCAUGU"}, {"binder": "B27", "binding signal": "0.123 KA relative to UGCAUGU"}, {"binder": "B28", "binding signal": "0.124 KA relative to UGCAUGU"}, {"binder": "B29", "binding signal": "0.0938 KA relative to UGCAUGU"}, {"binder": "B30", "binding signal": "0.123 KA relative to UGCAUGU"}, {"binder": "B31", "binding signal": "0.105 KA relative to UGCAUGU"}]}]}
